# Assay results: patent US8507506B2, “Theophylline derivative inhibits osteoporosis” (Kaohsiung Medical University, priority 2011, dated 2013)
# Tested on: osteoclast-like cells, OCL
# Assay: Intracellular calcium (fura-2/AM), RANKL-induced calcium influx
# Conditions: 0.1 μM, FIGS. 14 and 15
# Experimental: The key transcription factor, NFATc1, is affected by MAP kinases/c-Fos and also influenced by the calcium pathway. […] . Macrophages, RAW264.7, are stimulated by RANKL for 4 minutes, and a fluorescent probe of calcium (fura-2/AM) is used to exam the inner-cellular calcium. As shown in FIG. 14(A), the concentration of the inner-cellular calcium dose not change obviously. In the cell culture, the stimulation of RANKL is applied in advance for one week to make macrophages to differentiate into osteocalast-like cells, OCL, and then the osteoclast-like cells are stimulated by RANKL can obviously increase the concentration of inner-cellular calcium.
smiles,measurement,value
"Cn1c(=O)c2c(ncn2CCN2CCN(c3ccccc3Cl)CC2)n(C)c1=O [KMUP-1, 7-[2-[4-(2-Chlorophenyl)piperazin-1-yl]ethyl] theophylline]",RANKL-induced extracellular calcium influx,cannot apparently inhibit RANKL inducing extracellular calcium influx
